{
  "source": "PubChem BioAssay AID651820",
  "about": "(National Center for Advancing Translational Sciences (NCATS), 2012)",
  "note": "The whole screen tested about 340,000 compounds, of which about 12,000 (3.5%) were called active. The shares of active, inactive and inconclusive entries below differ from those in the screen. Calls follow the shape of the dose curve; as a rule, active = well fitted inhibition curve with a large enough effect; inconclusive = small, poorly fitted or top-dose-only effect, or another doubt; inactive = no such curve, though single readings can be large or run the other way. No potency is given beside an inconclusive call; the fits are too rough. % is scaled to controls: 0 for no effect and ±100 for the full control effect; potency is read from the fitted curve at half-maximal effect; tags tell the direction and shape of the fitted curve.",
  "data": [
    {"assay": "qHTS Assay for Inhibitors of Hepatitis C Virus (HCV)", "conditions": "Huh7.5.1 HCVcc-Cre (HCVcc is cell-culture hepatitis C virus) infection, luciferase reporter, 44 h; activity change, negative = inhibition: at 41.8 µM (top of the series) unless noted", "outline": "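1,000 cells/well; 4 h culture; + compound; + HCVcc-Cre (~0.5 moi); 44 h; luciferase substrate, RT 15 min; read 15 sec.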", "values": [
      {"smiles": "COc1cccc(OC)c1C(=O)NNC(=O)c1cccc(COc2ccc3c(c2)CCC3)c1", "Potency": "inconclusive [inhibitor, partial curve, poor fit]"},
      {"smiles": "CCn1c2ccccc2c2cc(NC(=O)COc3ccccc3)ccc21", "Potency": "inconclusive [inhibitor, partial curve]"},
      {"smiles": "O=C1NC(=S)NC(=O)C1=Cc1cccc2cc3ccccc3cc12", "Potency": "active: 10 µM"},
      {"smiles": "COc1cc(-c2cc(C(=O)Nc3cc(S(=O)(=O)N4CCOCC4)ccc3O)c3ccccc3n2)cc(OC)c1OC", "Potency": "inconclusive [inhibitor, single point]"},
      {"smiles": "Cc1nn(CC(C)C)c2sc(C(=O)NC3CC(C)(C)NC(C)(C)C3)cc12", "Potency": "inconclusive [inhibitor, partial curve]"},
      {"smiles": "Cc1ccc(NCC(=O)N/N=C\\c2cccc(O)c2)cc1", "activity change, negative = inhibition": "inactive: 15.9%"},
      {"smiles": "COC(=O)N1C(=O)[C@](c2ccccc2)(C2CCCC2)N1C(=O)OC", "activity change, negative = inhibition": "inactive: 11.8%"},
      {"smiles": "Cc1ccc(N2C(=O)NC(=O)/C(=C\\C=C\\c3ccco3)C2=O)cc1C", "Potency": "inconclusive [inhibitor, single point]"},
      {"smiles": "CCOc1cc(C(=O)Nc2cccc(C(C)=O)c2)ccc1OCC(=O)N1CCCCC1", "Potency": "inconclusive [inhibitor, partial curve]"},
      {"smiles": "Cc1nn(Cc2ccccc2)c(Cl)c1/C=C/C(=O)OC(C(=O)NC(N)=O)C(C)C", "note": "(stereo not given)", "Potency": "inconclusive [inhibitor, single point]"},
      {"smiles": "COc1ccc(/C=C/C(=O)Nc2ccccc2C(=O)O)cc1OC", "activity change, negative = inhibition": "inactive: 0.589% [at 8.37 µM]"},
      {"smiles": "O=C(O)c1ccc(/C=N/O)cc1", "activity change, negative = inhibition": "inactive: -7.09%"},
      {"smiles": "CCN(CC(=O)Nc1c(F)cccc1F)C(=O)c1cccc(S(=O)(=O)N2CCCc3ccccc32)c1", "Potency": "inconclusive [inhibitor, single point]"},
      {"smiles": "C/C(=N/NS(=O)(=O)c1ccc(Br)cc1)c1ccc(NC(=O)c2ccc(C)o2)cc1", "activity change, negative = inhibition": "inactive: -6.32%"},
      {"smiles": "Cc1nn(-c2ccccc2)c2sc(C(=O)NC3CC3)cc12", "Potency": "active: 12.6 µM"},
      {"smiles": "O=C(Nc1ccc2c(c1)oc1ccccc12)C1CC1", "Potency": "active: 10 µM"},
      {"smiles": "CCOC(=O)N1CCN(C(=O)/C(=C/c2cccc3ccccc23)NC(=O)c2ccc(OC)c(OC)c2)CC1", "Potency": "inconclusive [inhibitor, partial curve]"},
      {"smiles": "Cc1ccc2nc(NC(=O)CN(C)S(=O)(=O)c3cccc4nsnc34)sc2c1", "Potency": "inactive"},
      {"smiles": "CCOC(=O)/C=C1\\SCC(=O)N1CCOc1cccc(Br)c1", "Potency": "inconclusive [inhibitor, partial curve, poor fit]"},
      {"smiles": "CC(=O)N(Cc1c(C#N)c2ccccc2n1C)c1ccccc1", "activity change, negative = inhibition": "inactive: 0.737%"},
      {"smiles": "COC(=O)[C@@]1(Cc2ccc(F)cc2)[C@H]2c3cc(C(=O)N4CCCC4)n(CCO)c3C[C@H]2CN1C(=O)c1ccccc1", "Potency": "inconclusive [inhibitor, full curve, poor fit]"},
      {"smiles": "Cc1cc(C)cc(S(=O)(=O)Cc2noc(C(=O)NCc3ccccc3)c2C(=O)NCc2ccccc2)c1", "Potency": "inconclusive [inhibitor, partial curve]"},
      {"smiles": "CC(C)(C)c1ccc(Cn2c(=N)n(CC(O)c3ccco3)c3ccccc32)cc1", "note": "(stereo not given)", "Potency": "active: 10 µM"},
      {"smiles": "CCc1c(C2(O)CCCCC2)[nH]c2cnccc12", "activity change, negative = inhibition": "inactive: -9.53%"},
      {"smiles": "O=C(Nc1cccc(-c2nnc(-c3ccccc3)o2)c1)C1CC1", "Potency": "active: 14.1 µM"},
      {"smiles": "COc1ccc(-c2nc(CCNS(=O)(=O)c3ccc4c(c3)OCCO4)cs2)cc1", "Potency": "active: 11.2 µM"},
      {"smiles": "COc1ccc(-c2cnn3cc(-c4cccc(Cl)c4)cnc23)cc1", "activity change, negative = inhibition": "inactive: -2.5%"},
      {"smiles": "CCN(c1ccccc1)S(=O)(=O)c1cccc(C(=O)NCc2ccccc2CN2CCOCC2)c1", "Potency": "inconclusive [inhibitor, partial curve]"},
      {"smiles": "COc1ccc(-n2c(N)c(C#N)c3ccc([N+](=O)[O-])cc3c2=O)cc1", "activity change, negative = inhibition": "inactive: 0.22%"},
      {"smiles": "Cc1cc(C(=O)N/N=C2\\CC(=O)c3ccccc32)c(C)n1-c1ccc(F)cc1", "activity change, negative = inhibition": "inactive: -28.8%"},
      {"smiles": "Cc1ccc(N2C(=O)CC(Sc3nccc(C)n3)C2=O)cc1", "note": "(stereo not given)", "activity change, negative = inhibition": "inactive: -0.699%"},
      {"smiles": "O=C1c2ccccc2C(=O)N1Cc1nc2ccccc2c(=O)n1-c1ccc(Br)cn1", "activity change, negative = inhibition": "inactive: 15.6%"},
      {"smiles": "COc1ccc(-c2nnc(NC(=O)c3ccco3)s2)cc1", "activity change, negative = inhibition": "inactive: 2.2%"},
      {"smiles": "CCOc1cc2c(cc1O)C(=NO)CC1C2CCC2(C)C(O)CCC12", "note": "(stereo not given)", "Potency": "inconclusive [inhibitor, partial curve]"},
      {"smiles": "COC(=O)c1[nH]c2c(c1C)C(=O)CC(c1cc(OC)ccc1OC)C2", "note": "(stereo not given)", "Potency": "inconclusive [inhibitor, full curve, poor fit]"},
      {"smiles": "CN(C)c1ccc2c(c1[N+](=O)[O-])Cc1ccccc1-2", "Potency": "inconclusive [inhibitor, single point]"},
      {"smiles": "O=C(Nc1nc(-c2ccc(F)c(F)c2)cs1)c1cc([N+](=O)[O-])ccc1N1CCOCC1", "Potency": "inconclusive [inhibitor, partial curve, poor fit]"},
      {"smiles": "Cc1cc(C)c(C)c(S(=O)(=O)N2CCN(C(=O)c3ccncc3)CC2)c1C", "activity change, negative = inhibition": "inactive: -6.52%"},
      {"smiles": "Cc1cc(C)c2cc(C#N)c(NCCNC(=S)NCCCN3CCOCC3)nc2c1", "Potency": "inconclusive [inhibitor, partial curve]"},
      {"smiles": "CCOC(=O)c1cc2c(=O)n3cccc(C)c3nc2n(CC2CCCO2)c1=NC(C)=O", "note": "(stereo not given)", "Potency": "inconclusive [inhibitor, single point]"},
      {"smiles": "Cc1ccc(S(=O)(=O)c2nc(-c3ccccc3Cl)oc2N(C)C2CCN(C)CC2)cc1", "Potency": "inconclusive [inhibitor, single point]"},
      {"smiles": "CC(=O)Nc1ccc(S(=O)(=O)Oc2cccc(/C=C3\\SC(N)=NC3=O)c2)cc1", "Potency": "inconclusive [inhibitor, partial curve]"},
      {"smiles": "CCCCNC(=O)COC(=O)c1ccc(C)c(NC(=O)c2ccco2)c1", "activity change, negative = inhibition": "inactive: -7.84%"},
      {"smiles": "O=C(Nc1ccc(-c2ccc(N3CCCCC3)nn2)cc1)c1ccco1", "Potency": "inconclusive [inhibitor, single point]"},
      {"smiles": "Cc1ccc(C(=O)N(Cc2cccnc2)Cc2cc3cc(C)ccc3n3nnnc23)cc1", "Potency": "inconclusive [inhibitor, partial curve, poor fit]"}
    ]}
  ]
}
